# Test results from PubChem BioAssay AID651820 (National Center for Advancing Translational Sciences (NCATS), 2012).
# Among all 340,000 compounds or so, about 12,000 (3.5%) were called active. Inconclusive means that the source gave no clear call. Such entries were picked first, then a sample of the others. Calls come from the whole dose curve; as a rule, active = well fitted inhibition curve with a large enough effect; inconclusive = small, poorly fitted or top-dose-only effect, or another doubt; inactive = no such curve, though single readings can be large or run the other way. Potencies of inconclusive entries are left out as doubtful fits.
# Assay: qHTS Assay for Inhibitors of Hepatitis C Virus (HCV)
# Conditions: Huh7.5.1 HCVcc-Cre (HCVcc is cell-culture hepatitis C virus) infection, luciferase reporter, 44 h; series mostly up to 41.8 µM
# How it was run: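 Infectious HCV cell culture screen: compound-treated cells (1,000/well, pre-plated 4 h) are infected with HCVcc-Cre at roughly 0.5 moi and grown 44 h. Infection is quantified by luciferase signal after 15 min substrate incubation at room temperature.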
# Potency is the fitted concentration of half-maximal effect; tags give direction and shape of the fitted curve.
row,Compound,Potency
1,CC(C(=O)Nc1ccccn1)(c1ccccc1)c1ccccc1,"inconclusive [inhibitor, single point]"
2,Cc1cc(Nc2nc(Cl)c(Cl)cc2Cl)n(-c2ccccc2)n1,"inconclusive [inhibitor, partial curve]"
3,CCOc1cc(C(=O)NC(=S)Nc2nc(C)cc(C)n2)cc(OCC)c1OCC,"inconclusive [inhibitor, partial curve, poor fit]"
4,O=C(CCn1c2c(c3ccccc31)CCCC2)NNC(=O)c1ccc([N+](=O)[O-])cc1,"inconclusive [inhibitor, full curve]"
5,C/C(=N\NC(=O)c1c(Cl)c(C)nn1C)c1cccc(NC(=O)c2cccc(F)c2)c1,"inconclusive [inhibitor, full curve, poor fit]"
6,COc1ccc(C(=O)NCc2cccnc2)cc1S(=O)(=O)N1CCCc2ccccc21,"inconclusive [inhibitor, single point]"
7,COc1ccc(CCNC(=O)C(=O)Nc2ccc3nc4n(c(=O)c3c2)CCCCC4)cc1OC,"inconclusive [inhibitor, partial curve]"
8,CCN(CC)CCCn1c2c(c(SCC(=O)Nc3cccc(C)c3C)nc1=O)CCC2,"inconclusive [inhibitor, single point]"
9,O=S(=O)(c1cccc2cnccc12)N1CCNCC1,"inconclusive [inhibitor, full curve, poor fit]"
10,COc1ccc(CC(C)Nc2cccc(F)c2)cc1 (stereo not drawn),inactive
11,Cc1ccc(C(=O)N2CC(=O)NC(=O)C2)cc1,inactive
12,CON(C)c1nc(OCCNC(=O)OCc2ccc(Cl)cc2C)nc(N(C)C)n1,"inconclusive [inhibitor, partial curve]"
13,COc1ccc(-c2cc(-c3ccccc3)nc(Cl)n2)cc1OC,"inconclusive [inhibitor, single point]"
14,O=C(Nc1ccc(N2CCN(C(=O)c3ccc(Cl)cc3)CC2)cc1)c1ccc2c(c1)OCCO2,active: 7.08 µM
15,COc1ccc(CC2(CO)CCN(S(=O)(=O)c3c(C)nn(C)c3Cl)CC2)cc1,inactive
16,CC(C)(C)[C@@H]1COC(=O)[C@H](Cc2ccc(F)cc2)C/C=C\C[C@H](CC(=O)N(CCO)Cc2ccccc2)C(=O)N1,inactive
17,Clc1cc2c(cc1/C=N/Nc1nc(N3CCOCC3)nc(N3CCOCC3)n1)OCO2,"inconclusive [inhibitor, full curve, poor fit]"
18,Cc1[nH]c2ccccc2c1C1=CC(=O)C=CC1=O,"inconclusive [inhibitor, single point]"
19,CC(C)(C)OC(=O)[C@H]1[C@H](c2ccc([N+](=O)[O-])cc2)C2(C(=O)c3ccccc3C2=O)C2c3ccccc3C=NN21 (stereo partly drawn),"inconclusive [inhibitor, partial curve]"
20,CCc1cccc(NC(=O)Cn2c(=O)oc3cc(S(=O)(=O)N4CCOCC4)ccc32)c1,"inconclusive [inhibitor, partial curve]"
21,CCN(CC)CCn1c(SCC(=O)NCCC2=CCCCC2)nc2c(sc3ccccc32)c1=O,"inconclusive [inhibitor, partial curve]"

row,Compound,Potency
1,COc1ccc2c(c1)[C@H]1[C@H](CO2)[C@H](c2ccccc2)[C@]2(C)C(=O)Nc3cc(OC)c(OC)cc3C(=O)N12,active: 10 µM
2,CCN(CC)Cc1cc(Nc2c3ccccc3nc3c4ccccc4n(C)c23)cc(CN(CC)CC)c1O,"inconclusive [inhibitor, single point]"
3,Cc1ccc(-n2ncc3c(=O)[nH]c(SC(C)C)nc32)cc1,"inconclusive [inhibitor, partial curve]"
4,Cc1c(C(=O)NCCCN2CCCCC2)oc2ccc3c(c12)C(O)CC1(CCCCC1)O3 (stereo not drawn),"inconclusive [inhibitor, partial curve]"
5,COc1cc(C)c(CN2CCN(S(=O)(=O)c3ccc(Cl)s3)CC2)cc1OC,"inconclusive [inhibitor, single point]"
6,Cc1ccc(C)c(S(=O)(=O)N2CCN(C(=O)CCC(=O)c3cc(C)sc3C)CC2)c1,"inconclusive [inhibitor, single point]"
7,COc1ccc(O)c(/C=N/NC(=O)c2ccc(OCc3cccc(Br)c3)cc2)c1,active: 2.82 µM
8,CCOC(=O)c1ccc(NC(=O)Nc2cccc(C)n2)cc1,inactive
9,CCOc1ccc(CCNC(=O)COC(=O)c2cc([N+](=O)[O-])ccc2N2CCOCC2)cc1OCC,"inconclusive [inhibitor, partial curve]"
10,COc1cc2c(cc1OC)C(C)N(C(=O)c1ccc(Cl)c(S(=O)(=O)N3CCCCC3)c1)CC2 (stereo not drawn),active: 8.91 µM
11,COc1cc2c(cc1OC)C(C)N(CC(=O)Nc1ccc(S(=O)(=O)N3CCCC3)cc1)CC2 (stereo not drawn),"inconclusive [inhibitor, partial curve]"
12,CC1CN(S(=O)(=O)c2cccc(C(=O)NCCC3=CCCCC3)c2)CC(C)O1 (stereo not drawn),"inconclusive [inhibitor, single point]"
13,Cc1cccc(NC(=O)Cn2c(=O)n(Cc3ccccc3)c(=O)c3c(C)c(C)sc32)c1,active: 10 µM
14,COc1ccc(S(=O)(=O)N(C)c2ccc(C(=O)N3CCCCC3)cc2)cc1OC,"inconclusive [inhibitor, partial curve]"
15,COc1ccccc1NS(=O)(=O)c1cc(NC(=O)c2cccs2)ccc1N1CCOCC1,"inconclusive [inhibitor, single point]"
16,NS(=O)(=O)c1cccc(NC(=O)C(Cc2ccccc2)NC(=O)c2ccccc2)c1 (stereo not drawn),"inconclusive [inhibitor, partial curve]"
17,CCOc1ccccc1/C=N/NC(=O)c1cc(C(C)C)[nH]n1,"inconclusive [inhibitor, single point]"
18,C=Cc1cccc(NC(=O)COc2ccccc2)c1,"inconclusive [inhibitor, full curve, poor fit]"
19,Cc1ccccc1NC(=O)c1cccc2nc3ccccc3nc12,"inconclusive [inhibitor, full curve]"
20,CCCn1c(=O)c2ccccc2n2c(SCC(N)=O)nnc12,inactive
21,Cc1nnc(SCc2ccc(Cl)cc2)nc1/C=C/N(C)C,"inconclusive [inhibitor, single point]"

row,Compound,Potency
1,O=C(NC(=S)N1CCN(c2ccc(F)cc2)CC1)c1cccs1,"inconclusive [inhibitor, single point]"
2,CC(C(=O)N1CCCC1)c1ccc([N+](=O)[O-])cc1 (stereo not drawn),inactive
3,Cc1ccc(S(=O)(=O)N(CC(=O)Nc2cccc(N(C)S(C)(=O)=O)c2)c2ccc(Cl)c(Cl)c2)cc1,"inconclusive [inhibitor, single point]"
4,COc1ccccc1OCCSc1nc2ccccc2n1CC(N)=O,inactive
5,N#Cc1c2n(c3c(=O)n(Cc4ccc(Cl)cc4)cnc13)CCCCC2,"inconclusive [inhibitor, partial curve]"
6,O=[N+]([O-])c1cc(S(=O)(=O)N2CCCCC2)ccc1NCc1cccc(Cl)c1,"inconclusive [inhibitor, single point]"
7,Nc1nonc1-n1nnc(C(=O)N/N=C/c2ccc(OCc3ccccc3)cc2)c1CN1CCCCC1,"inconclusive [inhibitor, single point]"
8,C/C(=N\NC(=O)c1c[nH]c2ccccc12)c1ccc(C)o1,"inconclusive [inhibitor, full curve, poor fit]"
9,CCCC1C(=O)Nc2ccccc2N1C(=O)c1ccc(C(C)(C)C)cc1 (stereo not drawn),"inconclusive [inhibitor, single point]"
10,CC(=O)c1c(-c2ccccc2)c2cc([N+](=O)[O-])ccc2[nH]c1=O,"inconclusive [inhibitor, single point]"
11,CCC[C@@H](O)c1cc2cc(OC)c(OC)cc2c(=O)o1,inactive
12,O=C(COC(=O)/C=C/c1ccc(OC(F)F)cc1)Nc1ccc(N2CCOCC2)cc1,"inconclusive [inhibitor, partial curve]"
13,Cc1ccc(SCCC(=O)N(C)CC(=O)Nc2c(C)cccc2C)cc1,"inconclusive [inhibitor, single point]"
14,O=[N+]([O-])c1ccc(C2=Nn3c(Cn4nnc5ccccc54)nnc3SC2)cc1,"inconclusive [inhibitor, partial curve, poor fit]"
15,COC(=O)c1ccc(NC(=O)CSc2nc3cccnc3n2C)cc1,"inconclusive [inhibitor, full curve, poor fit]"
16,COC(=O)CSc1ccc(-c2nc3ccc(C)cc3[nH]2)cn1,inactive
17,Cc1nn(-c2ccccc2)c(N2CCCC2)c1/C=N/NC(=O)c1cc2ccccc2cc1O,"inconclusive [inhibitor, full curve, poor fit]"
18,O=C1CCCCc2sc(Br)c([N+](=O)[O-])c2N1,"inconclusive [inhibitor, single point]"
19,CCOC(=O)c1sc(NC(=S)NC(=O)CC(C)C)cc1C,"inconclusive [inhibitor, partial curve]"
20,CCc1ccc(/C(C)=N/NC(=O)c2ccc(-n3cnnn3)cc2)cc1,"inconclusive [inhibitor, partial curve]"
21,CCOC(=O)c1c(C)[nH]c(C(=O)COC(=O)c2ccc(O)cc2)c1C,"inconclusive [inhibitor, partial curve]"
